The results in this text go back to patent publication US20040053370A1.

This experiment addresses GLP-1 receptor. The experiment can be described thus: cell-based or functional assay.

B1: Gly^8-Glu^22-GLP-1-C2-IgG1 (Fc fusion)
chain: HGEGTFTSDVSSYLEEQAAKEFIAWLVKGRGSSGASSGAA[omitted - human IgG1 Fc]
Turning to B1, the In Vitro Activity (% of Val^8-GLP-1) (% of Val^8-GLP-1) was determined as 75.
